The target in experiment [1] is human β-Klotho (human, UniProt Q86Z14 53-996). Description: Biacore solution equilibrium binding; 10 nM human b-Klotho. A general note: SPR reads the build-up and loss of mass on a sensor chip optically.
The target of experiment [2] is T1, cyno β-Klotho (cyno, UniProt A0A2K5WB58 53-996).
T1 chain: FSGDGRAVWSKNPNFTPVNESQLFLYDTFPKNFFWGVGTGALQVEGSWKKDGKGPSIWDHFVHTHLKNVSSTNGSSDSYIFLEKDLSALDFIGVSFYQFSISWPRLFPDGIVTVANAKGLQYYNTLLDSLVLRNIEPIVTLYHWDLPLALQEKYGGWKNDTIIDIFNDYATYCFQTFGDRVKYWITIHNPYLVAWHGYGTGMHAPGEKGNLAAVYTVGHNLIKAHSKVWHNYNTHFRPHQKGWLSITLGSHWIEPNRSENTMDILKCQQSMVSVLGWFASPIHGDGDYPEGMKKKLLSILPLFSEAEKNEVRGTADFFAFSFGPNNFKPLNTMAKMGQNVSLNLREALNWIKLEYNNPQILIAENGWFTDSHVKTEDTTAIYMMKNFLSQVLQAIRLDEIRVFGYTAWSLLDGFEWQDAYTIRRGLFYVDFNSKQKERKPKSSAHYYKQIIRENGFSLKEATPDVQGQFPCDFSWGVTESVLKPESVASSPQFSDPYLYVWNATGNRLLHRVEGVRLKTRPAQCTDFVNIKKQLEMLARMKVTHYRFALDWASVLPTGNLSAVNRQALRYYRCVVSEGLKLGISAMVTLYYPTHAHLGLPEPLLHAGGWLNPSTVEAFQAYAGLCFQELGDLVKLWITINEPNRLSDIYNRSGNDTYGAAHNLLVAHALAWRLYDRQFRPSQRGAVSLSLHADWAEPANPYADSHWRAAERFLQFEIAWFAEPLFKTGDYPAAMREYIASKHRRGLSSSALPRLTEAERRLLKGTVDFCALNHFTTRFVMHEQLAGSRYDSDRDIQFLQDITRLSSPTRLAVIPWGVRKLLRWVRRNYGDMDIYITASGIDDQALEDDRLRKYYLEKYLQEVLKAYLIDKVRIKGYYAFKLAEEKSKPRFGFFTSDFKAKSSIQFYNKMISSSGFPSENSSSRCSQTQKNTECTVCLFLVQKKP
Nature of the experiment: Biacore solution equilibrium binding; 25 nM cyno b-Klotho; plot key and legend give Fc-(G4S)3-FGF21 (L98R, P171G, A180E).

Experiment [3] concerns the target T1, cyno β-Klotho. Nature of the experiment: Biacore solution equilibrium binding; 25 nM cyno b-Klotho.

The EC50 is the concentration that produces a half-maximal response.

Sequence of UniProt Q86Z14 (Q86Z14 53-996): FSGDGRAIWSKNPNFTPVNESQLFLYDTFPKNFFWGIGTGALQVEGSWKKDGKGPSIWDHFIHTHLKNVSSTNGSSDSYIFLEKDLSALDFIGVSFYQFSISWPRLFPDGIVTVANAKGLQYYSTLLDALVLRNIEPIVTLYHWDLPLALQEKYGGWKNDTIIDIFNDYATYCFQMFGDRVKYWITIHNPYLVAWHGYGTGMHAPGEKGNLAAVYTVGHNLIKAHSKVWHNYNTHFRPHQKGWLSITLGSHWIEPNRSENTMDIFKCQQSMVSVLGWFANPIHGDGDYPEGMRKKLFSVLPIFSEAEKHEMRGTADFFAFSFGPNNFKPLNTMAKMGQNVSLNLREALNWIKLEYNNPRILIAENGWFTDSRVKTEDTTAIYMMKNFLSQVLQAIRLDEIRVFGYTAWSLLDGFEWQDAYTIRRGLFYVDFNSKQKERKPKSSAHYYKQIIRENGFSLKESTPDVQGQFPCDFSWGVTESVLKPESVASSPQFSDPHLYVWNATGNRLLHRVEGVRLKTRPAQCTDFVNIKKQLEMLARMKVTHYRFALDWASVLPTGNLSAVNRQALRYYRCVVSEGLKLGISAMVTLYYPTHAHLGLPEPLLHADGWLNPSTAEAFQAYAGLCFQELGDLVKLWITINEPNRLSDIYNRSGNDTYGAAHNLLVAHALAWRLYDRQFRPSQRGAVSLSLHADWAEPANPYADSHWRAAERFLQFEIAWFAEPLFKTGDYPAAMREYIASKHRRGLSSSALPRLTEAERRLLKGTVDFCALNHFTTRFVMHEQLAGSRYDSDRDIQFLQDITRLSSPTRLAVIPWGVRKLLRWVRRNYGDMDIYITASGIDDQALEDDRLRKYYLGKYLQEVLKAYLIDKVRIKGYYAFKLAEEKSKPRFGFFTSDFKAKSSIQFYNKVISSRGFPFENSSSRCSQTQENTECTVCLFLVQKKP

B1: Fc-(G4S)3-FGF21 (L98R, P171G, A180E) (Fc fusion)
chain: [skipping human IgG1 Fc]GGGGSGGGGSGGGGSHPIPDSSPLLQFGGQVRQRYLYTDDAQQTEAHLEIREDGTVGGAADQSPESLLQLKALKPGVIQILGVKTSRFLCQRPDGALYGSLHFDPEACSFRERLLEDGYNVYQSEAHGLPLHLPGNKSPHRDPAPRGPARFLPLPGLPPAPPEPPGILAPQPPDVGSSDPLSMVGGSQGRSPSYES
On to B1, for which the EC50 turned out to be 12.9 nM in experiment [1] and 10.4 nM in experiment [2].

B2: Fc-(L15)-FGF21 (L98R, P171G) (Fc fusion)
chain: [skipping human IgG1 Fc]GGGGGSGGGSGGGGSHPIPDSSPLLQFGGQVRQRYLYTDDAQQTEAHLEIREDGTVGGAADQSPESLLQLKALKPGVIQILGVKTSRFLCQRPDGALYGSLHFDPEACSFRERLLEDGYNVYQSEAHGLPLHLPGNKSPHRDPAPRGPARFLPLPGLPPAPPEPPGILAPQPPDVGSSDPLSMVGGSQGRSPSYAS
For B2, the EC50 was found to be 32.2 nM in experiment [1] and 30.8 nM in experiment [3].

The values are drawn from patent US20100285131A1 (published 2010).
